In PubChem BioAssay AID1671188 (National Center for Advancing Translational Sciences (NCATS), 2021):
Hit rate of the full screen: of about 100,000 compounds, about 250 (0.25%) were called active. This list was built around the results that the source calls inconclusive (neither active nor inactive); the mix of calls is not that of the screen. Calls come from the whole dose curve; as a rule, active = well fitted inhibition curve with a large enough effect; inconclusive = small, poorly fitted or top-dose-only effect; inactive = flat fitted curve, though single readings scatter. Potencies of inconclusive entries are left out as doubtful fits.

The compounds below were run against Alanine aminotransferase 2 (Homo sapiens) (UniProt Q8TD30) (assay: Primary qHTS assay for inhibitors of Glutamate pyruvate transaminase 2 (GPT2)). Conditions: Recombinant GPT2, coupled pyruvate oxidase/HRP Amplex Red fluorescence; activity change, negative = inhibition: at 57.7 µM (top of the series) unless noted; series mostly up to 57.7 µM.
Method in brief: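 GPT2 10ng/uL, a-KG 250uM, L-Ala 2mM, HEPES pH7.5 + 0.0001% Tween; 30 min RT. Then Amplex mix (PO/HRP/ThPP), 30 min RT dark, fluorescence. AOA 50uM used as positive control.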
% is set by controls: 0 for no effect and ±100 for the full control effect; potency is the fitted concentration of half-maximal effect; tags give direction and shape of the fitted curve.
Note: nearly all actives have a fitted effect of over 60% in size.

UniProt Q8TD30, sequence (Q8TD30 whole entry, looked up): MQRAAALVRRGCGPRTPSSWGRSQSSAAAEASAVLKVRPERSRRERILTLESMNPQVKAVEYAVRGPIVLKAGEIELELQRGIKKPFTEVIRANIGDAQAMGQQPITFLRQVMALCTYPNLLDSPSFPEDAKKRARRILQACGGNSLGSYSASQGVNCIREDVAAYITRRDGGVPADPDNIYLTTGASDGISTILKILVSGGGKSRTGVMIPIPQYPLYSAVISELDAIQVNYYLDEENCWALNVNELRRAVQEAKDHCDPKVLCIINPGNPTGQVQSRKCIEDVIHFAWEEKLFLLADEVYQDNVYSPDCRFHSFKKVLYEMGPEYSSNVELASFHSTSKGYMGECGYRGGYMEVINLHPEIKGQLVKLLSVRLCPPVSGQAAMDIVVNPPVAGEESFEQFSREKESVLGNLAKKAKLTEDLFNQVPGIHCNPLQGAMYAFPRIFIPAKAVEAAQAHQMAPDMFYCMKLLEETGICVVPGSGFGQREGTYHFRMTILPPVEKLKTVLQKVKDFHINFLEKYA

| SMILES | activity change, negative = inhibition | Potency | outcome |
| --- | --- | --- | --- |
| OCc1ccc(CN2Cc3[nH]cnc3C[C@H]2c2nc(-c3ccc4ccccc4c3)no2)o1 | inactive: 4.95% [at 88.5 µM] |  |  |
| OCC1(c2nc(C3CCOCC3)nn2-c2cccc3c2CCC3)CC1 |  | inconclusive [inhibitor, single point] |  |
| C=CCOc1cccc(-c2nnc(CCC(=O)NCCCOC)c(=O)[nH]2)c1 |  | inconclusive [inhibitor, full curve, poor fit] |  |
| COc1ccc(C(=O)N2CC(Cn3c(C)cnc3-c3ccncc3)C2)cn1 | inactive: 4.13% |  |  |
| COc1ccc(-c2cc(C(O)C3CCCCN3)c3ccccc3n2)cc1 (stereo not drawn) |  | inconclusive [inhibitor, single point] |  |
| Cc1ccc(C(=O)N2CCCC(n3cc(-c4nc(-c5ccccc5)no4)nn3)C2)s1 (stereo not drawn) |  |  | inactive |
| COc1ccc(F)cc1-c1cccc(C(=O)NCCNC(=O)Nc2ccc(Cl)cc2)c1 |  |  | inactive |
| CCCN(C)c1nccnc1OC1CCN(C(=O)c2cccc(OC)c2OC)C1 (stereo not drawn) |  | inconclusive [inhibitor, single point] |  |
| C[C@H](C(=O)NCCN1CCOCC1)C1CC[C@@]2(C)Cc3sc(-c4ccccc4)nc3[C@@H](C)[C@@H]2[C@H]1O (stereo partly drawn) | inactive: 2.2% |  |  |
| Cc1ccc(C(=O)N2CCC3(CC2)CC(N2CCN(c4ccccc4)CC2)CCO3)cn1 (stereo not drawn) |  | inconclusive [inhibitor, single point] |  |
| Cc1noc(C)c1CCC(=O)NCc1cc2n(n1)CCN(C(=O)N(C)C)C2 |  | inconclusive [inhibitor, full curve, poor fit] |  |
| O=c1[nH]ccn1C1CCN(Cc2cccnc2)CC1 |  | inconclusive [inhibitor, partial curve, poor fit] |  |
| CC1(C)[C@H](Cc2cc(CC3CCCCC3)on2)C[C@@H]1NS(C)(=O)=O |  | inconclusive [inhibitor, full curve, poor fit] |  |
| COc1ccccc1Nc1ccnc(N2CCC(N[S+](=O)([O-])c3ccccc3)CC2)n1 | inactive: -23.9% |  |  |
| COc1ccc(-c2cc3c(=O)n(CCNC(=O)c4ccccc4C)ccn3n2)cc1 | inactive: -3.22% |  |  |
| COc1ccc(CN2CC[C@@](O)(C3CC3)[C@H](C)C2)cc1CN1CCCC1 | inactive: -1.19% |  |  |
| COCCCNC(=O)c1ccc(Cn2c(=O)c3ccccc3n(Cc3ccc(C(C)C)cc3)c2=O)cc1 |  | inconclusive [inhibitor, single point] |  |
| CC1(C)O[C@@H]2C[C@H]3[C@@H]4C[C@H](F)C5=CC(=O)CC[C@]5(C)[C@H]4[C@@H](O)C[C@]3(C)[C@]2(C(=O)CO)O1 |  | inconclusive [inhibitor, single point] |  |
